The other results are listed elsewhere or left out. These are noisy estimates, calculated here from bound and input reads.

The assay has as its target T1, Pho4 (S. cerevisiae) (UniProt P07270).
T1 sequence: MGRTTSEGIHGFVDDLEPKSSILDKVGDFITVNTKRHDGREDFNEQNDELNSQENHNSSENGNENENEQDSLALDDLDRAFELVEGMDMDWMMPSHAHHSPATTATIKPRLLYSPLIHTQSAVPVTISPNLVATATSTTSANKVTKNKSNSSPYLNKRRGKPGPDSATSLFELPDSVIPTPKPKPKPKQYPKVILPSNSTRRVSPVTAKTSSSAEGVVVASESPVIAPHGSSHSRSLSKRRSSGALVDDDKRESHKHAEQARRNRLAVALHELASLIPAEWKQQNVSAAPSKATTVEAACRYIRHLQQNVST
As to the kind of experiment: relative binding free energy (BET-seq); higher = weaker binding. Particulars: reference: library average.
In the case of TATTTCACGTGCGCGG, the “relative binding free energy” value amounted to 0.15 kcal/mol. For TTGATCACGTGTTTCG the value was 0.23 kcal/mol; for TGTGTCACGTGATTCA, -0.07 kcal/mol; for GTCCGCACGTGGGGTG, -0.24 kcal/mol. The figure for AAGTTCACGTGGTGTC is 0.1 kcal/mol. As to TTTCGCACGTGTAATT, the “relative binding free energy” value came out at 0.11 kcal/mol. For AGAATCACGTGTTCTG the value was 0.16 kcal/mol; for TTAGTCACGTGAGTAC, 0.24 kcal/mol. With TTAGGCACGTGTCTTA, the “relative binding free energy” value was -0.13 kcal/mol. The figure for GTTGGCACGTGGGCGC is -0.14 kcal/mol.

With ATGCTCACGTGTTGAA, the “relative binding free energy” value came to 0.25 kcal/mol. For CTGCTCACGTGTAGTG the value was 0.27 kcal/mol; for GGCTTCACGTGGGATG, 0.22 kcal/mol; for TGTTACACGTGGTACG, 0.01 kcal/mol. Take GTGCTCACGTGGCGGG: the “relative binding free energy” value came to 0.12 kcal/mol.

For the sequence TAGTTCACGTGATGCA, the “relative binding free energy” value amounted to 0.35 kcal/mol. For TGGTACACGTGAAGTT the value was 0.35 kcal/mol; for TCAGGCACGTGGTCGT, -0.09 kcal/mol. For GAAGCCACGTGGTTGT, the “relative binding free energy” value was -0.06 kcal/mol. For ATTGCCACGTGTTTTA the value was -0.16 kcal/mol; for GCCTTCACGTGTAGGT, 0.15 kcal/mol; for TGGCTCACGTGACGGG, 0.11 kcal/mol. The figure for TAGTTCACGTGCGGGG is 0.33 kcal/mol; for TGCTTCACGTGTGCGT it is 0.14 kcal/mol; for GAAAACACGTGGTTTT it is 0.11 kcal/mol. For GGGGTCACGTGGTGAT the value was 0.21 kcal/mol; for ACGAACACGTGTGGTG, -0.02 kcal/mol.

For the sequence TGCGGCACGTGGGATC, the “relative binding free energy” value is -0.15 kcal/mol.

Consider AGTTTCACGTGAGGCA, for which the “relative binding free energy” value worked out at 0.38 kcal/mol. The figure for GCGGGCACGTGGTCGT is -0.31 kcal/mol; for GATGGCACGTGGGGGG it is -0.19 kcal/mol. The figure for TCGGACACGTGCGTGT is -0.1 kcal/mol. The figure for AGAGACACGTGTGCGG is -0.01 kcal/mol; for ATGCTCACGTGGGTGG it is 0.05 kcal/mol; for GATTTCACGTGATTTA it is 0.37 kcal/mol. With TCATGCACGTGATCGT, the “relative binding free energy” value was determined as 0.13 kcal/mol.

With TAACGCACGTGTGTGA, the “relative binding free energy” value was -0.1 kcal/mol. For CGTAACACGTGGGTTG the value was -0.09 kcal/mol; for TTTTGCACGTGGTAGG, -0.06 kcal/mol; for ATATTCACGTGAAATA, 0.39 kcal/mol. For TTTAACACGTGTGGAT the value was 0.07 kcal/mol; for TTTGACACGTGTAATT, 0.2 kcal/mol; for GATCTCACGTGTTAGT, 0.39 kcal/mol. The figure for GGTAACACGTGGCTGT is 0 kcal/mol; for GGTGACACGTGGTCAG it is 0.08 kcal/mol; for CTTTGCACGTGCGGTA it is -0.17 kcal/mol. For the sequence TGTGGCACGTGAGTCG, the “relative binding free energy” value amounted to 0.17 kcal/mol. For GTTTTCACGTGAGGGT the value was 0.4 kcal/mol; for TGCGACACGTGGGATA, 0 kcal/mol.

As to TAGGGCACGTGACGTG, the “relative binding free energy” value was -0.04 kcal/mol. The figure for GTTTCCACGTGTGTAT is 0.11 kcal/mol; for AGTAGCACGTGAGAGG it is 0.22 kcal/mol. For TTGTCCACGTGCAGTG the value was 0.01 kcal/mol; for TAGATCACGTGTGTCA, 0.25 kcal/mol; for TTTTACACGTGATGCG, 0.22 kcal/mol. For CGGGGCACGTGTGCAG the value was -0.13 kcal/mol; for ATGGGCACGTGGAATG, -0.01 kcal/mol; for CTGATCACGTGAGGTG, 0.33 kcal/mol.

Take CTACACACGTGGGGGG: the “relative binding free energy” value is -0.11 kcal/mol.

With TTCGCCACGTGGGGGT, the “relative binding free energy” value is -0.25 kcal/mol. For TGCAGCACGTGTTTTA, the “relative binding free energy” value is -0.11 kcal/mol. CTCGACACGTGGTGGG: the “relative binding free energy” value was -0.13 kcal/mol. Turning to ATCTTCACGTGGAGTT, the “relative binding free energy” value was determined as 0.32 kcal/mol. The figure for GGAGGCACGTGGTAAA is -0.04 kcal/mol; for CTGTTCACGTGTGCGG it is 0.2 kcal/mol; for GTGTGCACGTGGTTGT it is -0.06 kcal/mol. For TATGACACGTGGAGGA, the “relative binding free energy” value was 0.03 kcal/mol. The figure for TTATACACGTGGTGCG is -0.09 kcal/mol.

As to TAGTGCACGTGCGGCG, the “relative binding free energy” value is -0.1 kcal/mol.

Regarding CGTGTCACGTGCTTTG, the “relative binding free energy” value worked out at 0.01 kcal/mol. The figure for ACAGGCACGTGTGGAA is -0.04 kcal/mol. The figure for TGTTTCACGTGGGCGC is 0.3 kcal/mol; for AGAAGCACGTGGAGGC it is -0.06 kcal/mol; for TGTAGCACGTGACGTT it is -0.01 kcal/mol. For TGGGTCACGTGAGGAT the value was 0.28 kcal/mol; for TGTAGCACGTGAGGCC, 0.18 kcal/mol; for GTGCTCACGTGTCGGG, 0.22 kcal/mol. For TTGGTCACGTGAGAGT, the “relative binding free energy” value was found to be 0.32 kcal/mol.

With TGGGTCACGTGGATAA, the “relative binding free energy” value worked out at 0.13 kcal/mol.

For CTTGGCACGTGGTGGA, the “relative binding free energy” value was -0.23 kcal/mol. The figure for ATTTTCACGTGATGAG is 0.43 kcal/mol; for GGTGGCACGTGGCACG it is -0.13 kcal/mol.

Take TTATACACGTGGGTCA: the “relative binding free energy” value was -0.21 kcal/mol. Turning to TGGGACACGTGGCGAT, the “relative binding free energy” value is -0.09 kcal/mol. For TGTCCCACGTGAAGTG the value was 0.29 kcal/mol. The figure for GTTACCACGTGTTTTG is 0.07 kcal/mol. The figure for GTCGTCACGTGGGGTT is -0.01 kcal/mol. For the sequence CGGTACACGTGGGTTG, the “relative binding free energy” value was -0.08 kcal/mol. For ATTCGCACGTGGTGAG the value was -0.17 kcal/mol; for GATAACACGTGGTGGT, 0.11 kcal/mol; for TTTATCACGTGTTAGA, 0.12 kcal/mol. For TGTTGCACGTGGAACT the value was 0.02 kcal/mol. For ACTTGCACGTGGTTTC the value was 0.04 kcal/mol; for GGCGACACGTGGTGTA, -0.02 kcal/mol. Take TGATTCACGTGCCGTG: the “relative binding free energy” value was determined as 0.19 kcal/mol. The figure for TTCAGCACGTGGTAGT is -0.17 kcal/mol; for CTTATCACGTGTGATT it is 0.24 kcal/mol. For CGTCTCACGTGTGTTG the value was 0.19 kcal/mol. The figure for TAAGGCACGTGTTGGG is -0.07 kcal/mol; for TGGTACACGTGGCTAG it is -0.01 kcal/mol; for GTCTTCACGTGGGCTG it is 0.07 kcal/mol.

GAAGACACGTGTTGGA: the “relative binding free energy” value was 0.07 kcal/mol.

Take TTGTGCACGTGGAAGA: the “relative binding free energy” value was found to be 0.01 kcal/mol. In the case of GGTAGCACGTGGTAGT, the “relative binding free energy” value is -0.04 kcal/mol. The figure for TTCGACACGTGAAGTT is 0.22 kcal/mol; for GGCGTCACGTGAGTGC it is 0.33 kcal/mol. For TGAAGCACGTGAGGGT the value was 0.16 kcal/mol.

In the case of ATTATCACGTGACTGT, the “relative binding free energy” value was found to be 0.13 kcal/mol. As to GTTGGCACGTGAGCTT, the “relative binding free energy” value worked out at 0.06 kcal/mol. The figure for AGACGCACGTGGTGAG is -0.11 kcal/mol; for GGAGACACGTGCTTGT it is -0.07 kcal/mol; for GTGTTCACGTGGTACT it is 0.43 kcal/mol. For TTACACACGTGGTGGT the value was -0.16 kcal/mol; for GGAAACACGTGGCGGG, 0.02 kcal/mol. For the sequence TTTGTCACGTGATACA, the “relative binding free energy” value amounted to 0.32 kcal/mol.
